From the supplement of paper PMC3334620
Over roughly 33,000 sequences, “E-score (-0.5 to 0.5)” has its median near -0.021; the highest 2% begin near 0.32. This is one part of the list.

biological target: T1, Zap1 (UniProt P47043); test: PBM E-score (8-mer binding enrichment) (E-score (-0.5 to 0.5)); higher = stronger / more preferred TF binding; most listed sequences are background and not binding sites; conditions: protein concentration: 200 nM; construct: GST-full length
T1 sequence: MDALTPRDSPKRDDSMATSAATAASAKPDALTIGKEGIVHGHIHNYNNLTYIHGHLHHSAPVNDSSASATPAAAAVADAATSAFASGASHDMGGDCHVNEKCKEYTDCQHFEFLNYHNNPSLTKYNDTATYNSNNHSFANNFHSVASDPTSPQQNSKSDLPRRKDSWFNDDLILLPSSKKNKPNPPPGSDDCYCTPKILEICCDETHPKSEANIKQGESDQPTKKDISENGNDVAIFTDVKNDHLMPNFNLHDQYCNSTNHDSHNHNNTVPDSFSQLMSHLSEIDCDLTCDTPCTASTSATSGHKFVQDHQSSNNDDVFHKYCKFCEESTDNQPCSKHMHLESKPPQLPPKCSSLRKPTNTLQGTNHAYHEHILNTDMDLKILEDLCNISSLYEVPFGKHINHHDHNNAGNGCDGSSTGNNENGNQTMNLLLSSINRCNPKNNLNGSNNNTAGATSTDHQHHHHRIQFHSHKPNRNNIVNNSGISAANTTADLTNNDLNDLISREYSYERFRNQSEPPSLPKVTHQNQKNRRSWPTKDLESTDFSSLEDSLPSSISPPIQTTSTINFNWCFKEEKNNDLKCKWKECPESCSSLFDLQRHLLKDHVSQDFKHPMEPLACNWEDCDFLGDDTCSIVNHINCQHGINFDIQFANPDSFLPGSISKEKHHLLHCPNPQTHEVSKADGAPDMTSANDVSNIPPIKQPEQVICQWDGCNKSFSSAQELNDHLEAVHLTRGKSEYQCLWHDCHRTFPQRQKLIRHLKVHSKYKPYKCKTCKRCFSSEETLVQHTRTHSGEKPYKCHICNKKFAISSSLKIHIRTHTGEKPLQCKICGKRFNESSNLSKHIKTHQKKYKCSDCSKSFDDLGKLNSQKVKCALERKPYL
Summary of the method: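 Bound GST-tagged yeast transcription factors, applied at about 100-200 nM to double-stranded universal all-10-mer Agilent arrays, were detected with fluorescent anti-GST. Scans were normalised with masliner. A modified Wilcoxon-Mann-Whitney statistic, the E-score, was assigned to each ungapped eight-base word pooled with its reverse complement by the Universal PBM Analysis Suite.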

Sequence | PBM E-score
ATGTTCGA | 0.0487
GTCAGGGA | -0.111
AGCATAAC | 0.134
GCTCGGTA | -0.0125
TACGGATA | 0.126
GCGCACAC | -0.234
CGCAACGC | -0.0939
ACAGTTTA | 0.0549
GAGCACCC | 0.0439
CAAGTCAC | -0.1
GGGGATAC | 0.0806
CAGATTTC | -0.097
CCTAGAGC | -0.235
CACGCCTA | -0.203
CGGATTAC | -0.0478
GTTTCACA | 0.162
CGTTGGAG | -0.103
GGCTTTCA | -0.00287
ACGTGCCC | -0.226
GCCGCCCA | 0.018
GACTGCCA | -0.0641
AATGAAGG | 0.0657
ACGCACAA | 0.0143
AGTCAAAG | -0.00893
CCTCGATA | 0.123

Sequence | PBM E-score
AGTCTGGA | -0.118
GCTTCCTA | -0.241
AACAAACG | -0.0326
GCGGTCCC | 0.0517
TCTCTACA | 0.158
TTAGGGAA | -0.12
CAGAGAAC | -0.0592
AGGCACGA | -0.07
ATGAAAGC | 0.0514
AACAATGC | -0.0753
TCTCCACA | 0.0177
CAGAGGCC | -0.0571
CACTGCGG | 0.0859
GTATGGAC | -0.0155
GGATATCA | 0.0363
GCGCACGA | -0.0144
AAGACCCT | 0.261
AAGGACCC | 0.248
GAAAATCC | -0.0374
ACGAGATA | -0.0859
CCTATTCA | 0.207
TCTACTCA | -0.0823
AACTCCCC | -0.143
CCGTAATC | -0.0258
CACTTGGC | -0.00224

Sequence | PBM E-score
CCGTCGTA | -0.0502
CCTTAGAG | 0.0407
AGGCGATG | -0.179
CGAACTCG | 0.0289
CCTCAGCA | -0.192
GAGAGGAC | -0.135
GAACTGTC | -0.169
TTATAAAA | 0.13
ACTCGCAG | -0.0636
CTTTAGAC | 0.0999
GTCTATTA | -0.035
CGTGGTTC | 0.185
CACCCGTG | 0.0546
AATTCCCC | -0.0785
TCCTGTCA | -0.0378
CTAGGAAG | -0.0365
ACTGCCCC | -0.255
AAGTTCGC | -0.0808
TCAGTAGA | -0.0962
AAGTACAT | 0.0711
GGAATGAA | 0.116
CAGAATAA | 0.133
AACCCTAT | 0.441
AGTTCAAA | -0.0313
AGGCCTAG | -0.1

Sequence | PBM E-score
GCATTATA | -0.0175
CTGCAGAC | -0.0745
ATAAATAG | 0.0999
CCAGATAC | -0.0905
GCTCAATA | -0.122
CAATCTAC | -0.177
GGTGCGAC | -0.0899
GCTCGGCA | -0.17
CTGAGTAC | -0.149
CCGGCATA | -0.254
CGTCTAAA | 0.182
AAGAGTTC | -0.0846
GAAGATTC | -0.188
GATCGAAA | 0.111
GAAAGTTC | -0.0509
ATAAGGTA | 0.231
TCCTTCGA | 0.0347
GTACTCTA | -0.0135
CCGCCTAA | -0.0281
GCTGCCGA | -0.0487
AGTAGGTA | -0.0118
ACAACGCT | -0.162
CTTTCGCC | -0.179
GAACACTC | -0.0378
AATTGCGA | -0.0863

Sequence | PBM E-score
AACGTCCT | -0.0921
CGGTAGAC | 0.174
AGACAAGA | -0.0243
TAACACAA | 0.175
ACAGGTCC | 0.00876
AGCTTGGA | -0.0874
AATATCAA | 0.078
ATCCGGAC | -0.259
AGATCTTC | -0.00348
ATTGCTGA | -0.1
GATAGAAC | 0.0235
CCCGGGGA | -0.0723
CTGTAATA | 0.0621
ATAAAAAT | 0.129
ATTGGTTG | 0.186
CTCGAGCC | -0.0275
AAGAACGC | -0.0711
GAATGTAC | -0.138
CCCCATTA | -0.0568
ATTTACAC | -0.122
CCGGCCAG | -0.148
ATACTAGC | -0.108
GATGACTA | -0.145
GGATCAAC | 0.0198
CAATGTAC | 0.0929

Sequence | PBM E-score
CGGCTAAC | -0.0659
GATTTCCC | 0.00718
AGCGGACT | -0.197
ATTAGGAA | 0.0387
AACGTTAA | 0.116
AGGCCTAA | 0.206
ACACCTTG | 0.149
AACTCCCA | -0.0305
CCGTTTTC | 0.0524
CCCCTGTC | -0.216
ATAATATG | 0.12
ACCTTGTA | 0.286
CACGAAAA | 0.101
GATCCCTA | -0.116
GTCGGTGA | -0.312
CAAAACTA | 0.094
AAGCTGCC | -0.266
AATCCTCA | -0.0702
CGCTATCA | -0.078
AAATAGCG | 0.0695
CAACCGTA | 0.0143
GGATCGAA | -0.11
GACGCACC | -0.0172
CCGAGAAC | -0.00423
ACGCTGCA | -0.171

Sequence | PBM E-score
AGGATCCA | -0.0568
CCTCACCC | -0.07
GCTCTCAC | -0.235
AAGCTCAT | -0.269
ATATCGTC | 0.0354
GCAAATCA | -0.0339
AACGCTAC | -0.13
AACCTCTT | 0.397
AAGTCCGC | -0.054
CTCCGCTA | -0.239
GCTACCGA | 0.0886
CGCCTGCC | -0.379
ACAGAACG | -0.211
AGGTCCGG | 0.0109
TGGGCAAA | -0.08
CGACTCCG | -0.392
ACGCGTTC | -0.105
AAATAATC | 0.0737
CTAAAATA | 0.093
AAAGCGCA | -0.174
GAGCCATC | -0.232
CCCTCCCG | -0.042
CCACGAAA | 0.0425
ATGAAAGA | 0.0644
CATGCCAA | -0.0416

Sequence | PBM E-score
TTACTCAA | 0.0202
AACTCCCG | -0.0817
ACTCGGCC | -0.16
CTTCCCCC | -0.442
ATGCATAC | -0.0129
AGTGGTGA | -0.0449
AGCCATAG | -0.138
CCGGACGC | -0.165
ACAAAACA | 0.0856
CTCACAGA | 0.0413
GTTATAAA | 0.279
ATGTAGTG | -0.0999
AGTTGCAG | -0.109
AAGACTTG | -0.0315
GTTAGTAA | 0.171
CTGCGCCC | -0.327
ACTTGATA | 0.0341
CCTTTACC | 0.108
CGATTGCG | -0.261
AAGTAATG | 0.0586
AGTTCGCC | -0.124
ATGTGGCA | -0.218
AATGCTAG | -0.264
CGGACGGC | -0.269
AAGCGATA | 0.004

Sequence | PBM E-score
CGGAGATC | -0.289
CAACTCTA | -0.0743
TATGATGA | 0.0587
GTCAATAA | 0.0959
ACCTTATG | 0.314
CGCTACAA | -0.0268
GCGGGCGA | -0.105
AAGTTTTG | 0.161
CGAAACGA | 0.0447
CAGTCGGA | -0.131
ATAGATGC | -0.23
AGATCTAC | 0.0129
GACCCGTA | 0.212
CTTGGTTA | 0.334
CTACTAAA | 0.0351
CTGAGTGC | -0.134
CCGGGCCA | -0.0147
GTAAAGCA | 0.063
ATAAATAC | 0.131
